# In the supplement of paper PMC8728848:
# This is one part of the list.
# Experiments:
# Assay in all cases: glycan array binding signal (z-score within array); higher = stronger binding
# Conditions in all cases: glycan notation: IUPAC condensed, linker removed
# [1] = molecular target: GlcNAc(b1-3)Gal(b1-4)GlcNAc(b1-3)[GlcNAc(b1-3)Gal(b1-4)GlcNAc(b1-3)]GalNAc
# Method in brief: (§1)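 Glycan array data came from 3228 arrays in the Consortium for Functional Glycomics database, and only arrays with an available protein sequence were kept. Glycan names were put into IUPAC-condensed notation, and columns mapping to the same glycan were averaged. The binding signal is a within-array Z-score, averaged across arrays of one protein sequence run at different concentrations or buffers and across linkers. A negative Z-score can be read as non-binding.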
# [2] = molecular target: GlcNAc(b1-3)Gal(b1-4)GlcNAc(b1-6)[Gal(b1-3)]GalNAc
# Method in brief: as §1
# [3] = molecular target: GlcNAc(b1-3)Gal(b1-4)GlcNAc(b1-6)[GlcNAc(b1-3)Gal(b1-3)]GalNAc
# Method in brief: as §1
# [4] = molecular target: GlcNAc(b1-3)Gal(b1-4)GlcNAc(b1-6)[GlcNAc(b1-3)]Gal(b1-4)GlcNAc
# Method in brief: as §1
# GlcNAc(b1-3)GalNAc = molecular target: GlcNAc(b1-3)GalNAc
# Method in brief: as §1
# GlcNAc(b1-3)Man = molecular target: GlcNAc(b1-3)Man
# Method in brief: as §1
# [5] = molecular target: GlcNAc(b1-3)[GlcNAc(b1-4)][GlcNAc(b1-6)]GlcNAc
# Method in brief: as §1
# [6] = molecular target: GlcNAc(b1-3)[GlcNAc(b1-6)]Gal(b1-4)GlcNAc
# Method in brief: as §1
# [7] = molecular target: GlcNAc(b1-3)[GlcNAc(b1-6)]GalNAc
# Method in brief: as §1
# [8] = molecular target: GlcNAc(b1-3)[GlcNAc(b1-6)]GlcNAc
# Method in brief: as §1
# [9] = molecular target: GlcNAc(b1-3)[GlcNAc(b1-6)]GlcNAc(b1-4)GlcNAc
# Method in brief: as §1
# [10] = molecular target: GlcNAc(b1-4)Gal(b1-4)GlcNAc
# Method in brief: as §1
# GlcNAc(b1-4)GlcNAc = molecular target: GlcNAc(b1-4)GlcNAc
# Method in brief: as §1
# [11] = molecular target: GlcNAc(b1-4)GlcNAc(b1-4)GlcNAc
# Method in brief: as §1
# [12] = molecular target: GlcNAc(b1-4)GlcNAc(b1-4)GlcNAc(b1-4)GlcNAc(b1-4)GlcNAc
# Method in brief: as §1
# [13] = molecular target: GlcNAc(b1-4)GlcNAc(b1-4)GlcNAc(b1-4)GlcNAc(b1-4)GlcNAc(b1-4)GlcNAc
# Method in brief: as §1
# [14] = molecular target: GlcNAc(b1-4)[GlcNAc(b1-6)]GalNAc
# Method in brief: as §1
# [15] = molecular target: GlcNAc(b1-6)Gal(b1-4)GlcNAc
# Method in brief: as §1
# GlcNAc(b1-6)GalNAc = molecular target: GlcNAc(b1-6)GalNAc
# Method in brief: as §1
# [16] = molecular target: GlcNAc6S(b1-3)Gal(b1-4)GlcNAc
# Method in brief: as §1
# Kdn(a2-3)Gal(b1-3)GalNAc = molecular target: Kdn(a2-3)Gal(b1-3)GalNAc
# Method in brief: as §1
# Kdn(a2-3)Gal(b1-3)GlcNAc = molecular target: Kdn(a2-3)Gal(b1-3)GlcNAc
# Method in brief: as §1
# Kdn(a2-3)Gal(b1-4)Glc = molecular target: Kdn(a2-3)Gal(b1-4)Glc
# Method in brief: as §1
# Kdn(a2-3)Gal(b1-4)GlcNAc = molecular target: Kdn(a2-3)Gal(b1-4)GlcNAc
# Method in brief: as §1
# [17] = molecular target: Kdn(a2-3)Gal(b1-4)[Fuc(a1-3)]GlcNAc
# Method in brief: as §1
# Kdn(a2-6)Gal(b1-4)GlcNAc = molecular target: Kdn(a2-6)Gal(b1-4)GlcNAc
# Method in brief: as §1
# [18] = molecular target: Man(a1-2)Man(a1-2)Man(a1-3)Man
# Method in brief: as §1
# [19] = molecular target: Man(a1-2)Man(a1-2)Man(a1-3)[Man(a1-2)Man(a1-3)[Man(a1-2)Man(a1-6)]Man(a1-6)]Man(b1-4)GlcNAc(b1-4)GlcNAc
# Method in brief: as §1
# [20] = molecular target: Man(a1-2)Man(a1-2)Man(a1-3)[Man(a1-2)Man(a1-6)[Man(a1-3)]Man(a1-6)]Man(b1-4)GlcNAc(b1-4)GlcNAc
# Method in brief: as §1
# [21] = molecular target: Man(a1-2)Man(a1-2)Man(a1-6)[Man(a1-3)]Man
# Method in brief: as §1
# Man(a1-2)Man(a1-3)Man = molecular target: Man(a1-2)Man(a1-3)Man
# Method in brief: as §1
# [22] = molecular target: Man(a1-2)Man(a1-3)[Man(a1-2)Man(a1-6)]Man
# Method in brief: as §1
# [23] = molecular target: Man(a1-2)Man(a1-3)[Man(a1-2)Man(a1-6)]Man(a1-6)[Man(a1-2)Man(a1-2)Man(a1-3)]Man
# Method in brief: as §1
# [24] = molecular target: Man(a1-2)Man(a1-3)[Man(a1-2)Man(a1-6)]Man(a1-6)[Man(a1-2)Man(a1-2)Man(a1-3)]Man(b1-4)GlcNAc(b1-4)GlcNAc
# Method in brief: as §1
# [25] = molecular target: Man(a1-2)Man(a1-3)[Man(a1-3)[Man(a1-6)]Man(a1-6)]Man(b1-4)GlcNAc(b1-4)GlcNAc
# Method in brief: as §1
# [26] = molecular target: Man(a1-2)Man(a1-3)[Man(a1-6)]Man(a1-6)[Man(a1-2)Man(a1-3)]Man(b1-4)GlcNAc(b1-4)GlcNAc
# Method in brief: as §1
# [27] = molecular target: Man(a1-2)Man(a1-6)[Man(a1-3)]Man(a1-6)[Man(a1-2)Man(a1-2)Man(a1-3)]Man
# Method in brief: as §1
binder,measurement,setting,value
"LTL (Lotus tetragonolobus), P19664 (protein) VSFNYTEFKDDGSLILQGDAKIWTDGRLAMPTDPLVNNPKTTRSAGRALYATPVPIWDSATGNVASFVTSFNFLFVIRELKYTPTDGLVFFLAPVGTEIPSGSTGGFLGIFDGSNGFNQFVAVEFDSYHNIWDPKSLRSSHVGIDVNSIMSLKAVNWNRVSGSLEKATIIYDSQTNILSVVMTSQNGQITTIYGTIDLKTVLPEKVSVGFSATTGNPEREKHDIYSWSFTSTLKEPEEQA",glycan array binding signal (z-score),[1],-0.169
same,glycan array binding signal (z-score),[2],-0.142
same,glycan array binding signal (z-score),[3],-0.112
same,glycan array binding signal (z-score),[4],-0.263
same,glycan array binding signal (z-score),GlcNAc(b1-3)GalNAc,-0.133
same,glycan array binding signal (z-score),GlcNAc(b1-3)Man,-0.127
same,glycan array binding signal (z-score),[5],-0.024
same,glycan array binding signal (z-score),[6],-0.236
same,glycan array binding signal (z-score),[7],-0.189
same,glycan array binding signal (z-score),[8],-0.398
same,glycan array binding signal (z-score),[9],-0.322
same,glycan array binding signal (z-score),[10],-0.415
same,glycan array binding signal (z-score),GlcNAc(b1-4)GlcNAc,-0.082
same,glycan array binding signal (z-score),[11],0.123
same,glycan array binding signal (z-score),[12],-0.032
same,glycan array binding signal (z-score),[13],0.542
same,glycan array binding signal (z-score),[14],-0.202
same,glycan array binding signal (z-score),[15],-0.053
same,glycan array binding signal (z-score),GlcNAc(b1-6)GalNAc,-0.031
same,glycan array binding signal (z-score),[16],0.059
same,glycan array binding signal (z-score),Kdn(a2-3)Gal(b1-3)GalNAc,0.043
same,glycan array binding signal (z-score),Kdn(a2-3)Gal(b1-3)GlcNAc,-0.235
same,glycan array binding signal (z-score),Kdn(a2-3)Gal(b1-4)Glc,-0.225
same,glycan array binding signal (z-score),Kdn(a2-3)Gal(b1-4)GlcNAc,-0.141
same,glycan array binding signal (z-score),[17],0.286
same,glycan array binding signal (z-score),Kdn(a2-6)Gal(b1-4)GlcNAc,-0.105
same,glycan array binding signal (z-score),[18],-0.279
same,glycan array binding signal (z-score),[19],-0.679
same,glycan array binding signal (z-score),[20],-0.458
same,glycan array binding signal (z-score),[21],-0.133
same,glycan array binding signal (z-score),Man(a1-2)Man(a1-3)Man,-0.264
same,glycan array binding signal (z-score),[22],-0.234
same,glycan array binding signal (z-score),[23],-0.222
same,glycan array binding signal (z-score),[24],-0.065
same,glycan array binding signal (z-score),[25],-0.842
same,glycan array binding signal (z-score),[26],0.062
same,glycan array binding signal (z-score),[27],-0.035
